The source of these data is publication PMC3791423, “A Key Hydrophobic Patch Identified in an AAA^+ Protein Essential for Its In Trans Inhibitory Regulation” (Journal of Molecular Biology, 2013).

The chains are these.
B1: PspF_([…]) F60C (domain or fragment)
chain: not shown
notes: E. coli PspF, […], site-directed mutant of pPB1
B2: PspF_([…]) P59C (domain or fragment)
chain: not shown
notes: as for B1
B3: PspF_([…]) I61C (domain or fragment)
chain: not shown
notes: as for B1
B4: PspF_([…]) G58C (domain or fragment)
chain: not shown
notes: as for B1
B5: PspF_([…]) R55C (domain or fragment)
chain: not shown
notes: as for B1
B6: PspF_([…]) Q57C (domain or fragment)
chain: not shown
notes: as for B1
B7: PspF_([…]) S53C (domain or fragment)
chain: not shown
notes: as for B1
B8: PspF_([…]) H50C (domain or fragment)
chain: not shown
notes: as for B1
B9: PspF_([…]) S54C (domain or fragment)
chain: not shown
notes: as for B1
B10: PspF_([…]) S62C (domain or fragment)
chain: not shown
notes: as for B1

In the assay the target is PspA_(1–186) (E. coli, UniProt P0AFM6 part only). Nature of the assay: native gel or EMSA; PspA–F binding assay: 10 μM PspF_(1–275) and 30 μM PspA_(1–186) in STA buffer, 10 μl; native gel stained with SYPRO Ruby. The following applies: both partners purified.
As to B1, the binding result is “binds”.

With B2, the binding result is “binds”.

Turning to B3, the binding result is given as “binds”.

For the molecule B4, the binding result is “binds”.

As for B5, the binding result is recorded as “binds”.

For B6, the binding result was “binds”.

For B7, the binding result was “binds”.

Take B8: the binding result is listed as “binds”.

Take B9: the binding result was “binds”.

In the case of B10, the binding result is given as “binds”.
